Test results taken from the supplement of paper PMC4604168 (melanoma cell lines).
The other results are listed elsewhere or left out. Single values are uncertain, as repeats are few or missing.

Experiments:
Experiment in all cases: cell count relative to DMSO control; melanoma cells; higher = more viable cells
Settings in all cases: library dose: low library concentration; 72 h
[1] = test system: MZ2-MEL
[2] = test system: MeWo
[3] = test system: RPMI7951
[4] = test system: RVH-421
[5] = test system: SkMel28
[6] = test system: SkMel30
[7] = test system: SkMel5
[8] = test system: UACC257
[9] = test system: UACC62
[10] = test system: SkMel2
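Note: cell number obtained by counting DAPI-stained nuclei in high-throughput microscope images with image analysis software, screen run in 1,536-well plates.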

SMILES	cell count [1] [%]	cell count [2] [%]	cell count [3] [%]	cell count [4] [%]	cell count [5] [%]	cell count [6] [%]	cell count [7] [%]	cell count [8] [%]	cell count [9] [%]	cell count [10] [%]
C[C@]12O[C@H](C[C@]1(O)CO)n1c3ccccc3c3c4c(c5c6ccccc6n2c5c31)CNC4=O [Lestaurtinib] + O=C(Nc1cccc(Cl)c1)Nc1ncc(CCNc2ncnc3ccsc23)s1 [SNS314] (first compound 0.004 µM, partner dose 0.0008 µM)	119	100	128	97.8	97.6	115	107	89.2	95	–
C[As](C)SC[C@H](NC(=O)CC[C@H](N)C(=O)O)C(=O)NCC(=O)O [Darinaparsin] + Cc1cc(SCc2sc(-c3ccc(C(F)(F)F)c(F)c3)nc2C)ccc1OCC(=O)O [GW0742] (first compound 0.4 µM, partner dose 2 µM)	103	92.2	105	103	111	130	103	117	104	–
C[As](C)SC[C@H](NC(=O)CC[C@H](N)C(=O)O)C(=O)NCC(=O)O [Darinaparsin] + CCc1ccc(CCOc2ccc(CC3SC(=O)NC3=O)cc2)nc1 [pioglitazone] (first compound 0.4 µM, partner dose 2 µM)	101	90.5	90	101	85	94.2	89.7	84.7	94.3	–
C[C@]12O[C@H](C[C@]1(O)CO)n1c3ccccc3c3c4c(c5c6ccccc6n2c5c31)CNC4=O [Lestaurtinib] + COc1ccc2c(c1)CCC1C2CCC2(C)C(NCCCCCCN3C(=O)C=CC3=O)CCC12 [U73122] (first compound 0.004 µM, partner dose 0.4 µM)	104	99.6	78.9	94.1	103	84.7	101	88.2	99.6	–
C[C@]12O[C@H](C[C@]1(O)CO)n1c3ccccc3c3c4c(c5c6ccccc6n2c5c31)CNC4=O [Lestaurtinib] + CCc1ccc(CCOc2ccc(CC3SC(=O)NC3=O)cc2)nc1 [pioglitazone] (first compound 0.004 µM, partner dose 2 µM)	99.4	95.6	91.6	106	91.8	66.9	123	70	68.1	–
C[C@]12O[C@H](C[C@]1(O)CO)n1c3ccccc3c3c4c(c5c6ccccc6n2c5c31)CNC4=O [Lestaurtinib] + O=C1NC(=O)/C(=C/c2ccc(-c3ccc(F)cc3O)o2)S1 [AS252424] (first compound 0.004 µM, partner dose 1 µM)	106	84.4	108	124	112	88.1	114	93.8	95.3	–
C[As](C)SC[C@H](NC(=O)CC[C@H](N)C(=O)O)C(=O)NCC(=O)O [Darinaparsin] + O=C(O)C(=O)Nc1sc2c(c1C(=O)O)CCNC2 [TCS401] (first compound 0.4 µM, partner dose 1.66667 µM)	99.6	98.2	96.7	84.7	85.6	121	107	76.7	98.4	–
C[As](C)SC[C@H](NC(=O)CC[C@H](N)C(=O)O)C(=O)NCC(=O)O [Darinaparsin] + COc1ccc(COc2ccc(Cc3cnc(N)nc3N)cc2OC)cc1 [GW2580] (first compound 0.4 µM, partner dose 1 µM)	100	79.9	91	100	88.8	120	93	105	102	–
C[C@]12O[C@H](C[C@]1(O)CO)n1c3ccccc3c3c4c(c5c6ccccc6n2c5c31)CNC4=O [Lestaurtinib] + CN(NC(=O)CC(=O)NN(C)C(=S)c1ccccc1)C(=S)c1ccccc1 [STA4783] (first compound 0.004 µM, partner dose 0.006 µM)	107	93.6	96.4	112	103	93.7	105	80.5	87.8	–
C[As](C)SC[C@H](NC(=O)CC[C@H](N)C(=O)O)C(=O)NCC(=O)O [Darinaparsin] + N#Cc1c(O)c2c(-c3ccc(-c4ccccc4O)cc3)csc2[nH]c1=O [A769662] (first compound 0.4 µM, partner dose 2 µM)	97.7	79.9	78.9	97	88.3	92.5	89	89.9	96.3	–
C[C@]12O[C@H](C[C@]1(O)CO)n1c3ccccc3c3c4c(c5c6ccccc6n2c5c31)CNC4=O [Lestaurtinib] + Cc1ccc(NC(=O)c2cccc(N(C)C)c2)cc1NC(=O)c1ccc(O)cc1 [ZM336372] (first compound 0.004 µM, partner dose 2 µM)	83.3	105	67.8	104	106	90.5	93.4	67.4	90.4	–
C[As](C)SC[C@H](NC(=O)CC[C@H](N)C(=O)O)C(=O)NCC(=O)O [Darinaparsin] + O=c1cc(-c2cccc3c2Sc2ccccc2S3)oc(N2CCOCC2)c1 [KU55933] (first compound 0.4 µM, partner dose 1 µM)	98.1	70.7	96.2	99.7	82.8	94.7	87.5	95.6	89.9	–
C[C@]12O[C@H](C[C@]1(O)CO)n1c3ccccc3c3c4c(c5c6ccccc6n2c5c31)CNC4=O [Lestaurtinib] + CC(C)(C)c1cnc(CSc2cnc(NC(=O)C3CCNCC3)s2)o1 [SNS-032] (first compound 0.004 µM, partner dose 0.01 µM)	96.5	100	89.8	117	92.8	114	98.7	89.8	112	–
C[C@]12O[C@H](C[C@]1(O)CO)n1c3ccccc3c3c4c(c5c6ccccc6n2c5c31)CNC4=O [Lestaurtinib] + COc1cc(N2CCC(N3CCN(C)CC3)CC2)ccc1Nc1ncc(Cl)c(Nc2ccccc2S(=O)(=O)C(C)C)n1 [NVP-TAE684] (first compound 0.004 µM, partner dose 0.08 µM)	101	86.8	108	80.4	85.6	65	86	92.2	80.2	–
C[As](C)SC[C@H](NC(=O)CC[C@H](N)C(=O)O)C(=O)NCC(=O)O [Darinaparsin] + CC(C)CCN1c2nc(Nc3cc(F)c(O)c(F)c3)ncc2N(C)C(=O)C1C [BID1870] (first compound 0.4 µM, partner dose 0.2 µM)	101	87.9	101	94.7	74.3	75.4	94.8	80.1	83.2	–
Cn1cc(C2=C(c3cn(C4CCN(Cc5ccccn5)CC4)c4ccccc34)C(=O)NC2=O)c2ccccc21 [Enzastaurin] + CS(=O)(=O)c1ccc(C(=O)Nc2ccc(Cl)c(-c3ccccn3)c2)c(Cl)c1 [vismodegib] (first compound 0.8 µM, partner dose 1 µM)	89.8	124	98.2	101	112	85.7	–	–	102	98.6
C[C@]12O[C@H](C[C@]1(O)CO)n1c3ccccc3c3c4c(c5c6ccccc6n2c5c31)CNC4=O [Lestaurtinib] + O=C(CCCCCCC(=O)Nc1ccccc1)NO [vorinostat] (first compound 0.004 µM, partner dose 0.08 µM)	103	78.9	98.8	90.6	78.4	74.8	104	72.5	86.1	–
C[C@]12O[C@H](C[C@]1(O)CO)n1c3ccccc3c3c4c(c5c6ccccc6n2c5c31)CNC4=O [Lestaurtinib] + COc1cc(Nc2ncc(F)c(Nc3ccc4c(n3)NC(=O)C(C)(C)O4)n2)cc(OC)c1OC [Tamatinib] (first compound 0.004 µM, partner dose 0.4 µM)	93.8	95.7	94	121	86	91.5	82.8	59.5	93.1	–
C[C@]12O[C@H](C[C@]1(O)CO)n1c3ccccc3c3c4c(c5c6ccccc6n2c5c31)CNC4=O [Lestaurtinib] + Cc1cc([N+](=O)[O-])ccc1NS(=O)(=O)c1cc(Cl)ccc1Cl [FH535] (first compound 0.004 µM, partner dose 1 µM)	87.3	98.3	102	75.5	89.3	66.3	89.4	77.9	82.9	–
C[C@]12O[C@H](C[C@]1(O)CO)n1c3ccccc3c3c4c(c5c6ccccc6n2c5c31)CNC4=O [Lestaurtinib] + COc1cc2c(Oc3ccc4[nH]c(C)cc4c3F)ncnc2cc1OCCCN1CCCC1 [cediranib] (first compound 0.004 µM, partner dose 0.4 µM)	113	98.7	113	99.4	92.4	76.7	90.1	88.5	79.3	–
